# PubChem BioAssay AID686979 (National Center for Advancing Translational Sciences (NCATS), 2013)
# “And” between values parts separate entries of the source, which are not always exact repeats. Equal entries are not always repeated. The whole screen tested about 420,000 compounds, of which about 50,000 (12%) were called active. The shares of active, inactive and inconclusive entries below differ from those in the screen. The call rests on the fitted dose curve; in most records, active means well fitted inhibition curve with a large enough effect; inconclusive means small, poorly fitted or top-dose-only effect; inactive means flat fitted curve, though single readings scatter. Potencies beside an inconclusive call are fits to weak or partial responses and may not hold up.
# Assay: qHTS for Inhibitors of human tyrosyl-DNA phosphodiesterase 1 (TDP1): qHTS in cells in presence of CPT; further: nearly all actives have a fitted effect of over 55% in size
# Settings: chicken DT40 Tdp1-/-;hTDP1 cells + 20 nM CPT, ATP luminescence, 48 h; activity change, negative = growth inhibition: at 46.2 µM (top of the series) unless noted
# Method in brief: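 Chicken DT40 Tdp1-/- cells stably complemented with human TDP1 were seeded at 400 cells/well in medium containing 20 nM camptothecin, exposed to pin-transferred compounds, and grown at 37 °C for at least 48 hr. Viability was read as ATP luminescence.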
# On the % scale 0 is the no-effect control and ±100 the full control effect; potency means the concentration at half of the fitted maximal effect; tags describe the fitted curve by direction and shape.
SMILES,Potency,"activity change, negative = growth inhibition"
CC(C)NC(=S)N=Nc1c(O)[nH]c2ccc([N+](=O)[O-])cc12,"inconclusive: 29.1 µM [inhibitor, single point]",
Cc1ccc(-n2c(SCCN)nnc2-c2cccc(C)c2)cc1,"inconclusive: 29.1 µM [inhibitor, single point]",
C#Cc1ccc2c(c1)COc1c3ccccc3nn1-2,active: 10.3 µM,
O=C(C1CN(C(=O)c2cc3ccccc3o2)c2ccccc2O1)N1CCCCC1 (configuration not stated),"inconclusive: 29.1 µM [inhibitor, single point]",
COc1ccc(-c2csc(NC(=O)CN3C(=O)NC4(CCCC4)C3=O)n2)cc1OC,inactive,
O=C(NCCCN1CCOCC1)c1ccccc1N1C(=O)[C@@H]2Cc3c([nH]c4ccccc34)C(c3cccc(Cl)c3)N2C1=O (some centres not stated),active: 9.2 µM,
CN(C#N)c1nc(N2CCOCC2)nc(N2CCOCC2)n1,"inconclusive: 29.1 µM [inhibitor, single point]",
COC(=O)c1ccc(-n2nnnc2SCC(=O)Nc2ccccc2C(=O)OC)cc1,"inconclusive: 14.6 µM [inhibitor, partial curve]",
COc1ccc(CNC(=O)Cc2nn(C)c(=O)c3ccccc23)cc1,active: 10.3 µM,
CCOn1c(=O)c[n+]([O-])c2ccccc21,inactive,
c1ccc2[nH]c3cc4ncnc4cc3nc2c1,"inconclusive: 29.1 µM [inhibitor, single point]",
COc1ccc(-n2c(=O)c3c4c(sc3n(Cc3c(F)cccc3Cl)c2=O)CN(C(C)=O)CC4)cc1OC,"inconclusive: 20.6 µM [inhibitor, single point]",
CC[C@]1(C(=O)OC)[C@H]2C(=O)N(Cc3ccccc3)C(=O)[C@H]2[C@H]2CN(C)C(=NC)N21,inactive,
CC(C)n1c(SCC(=O)NC2CC2)nnc1-c1ccco1,inactive,
O=C(CSc1nc2cc(Cl)ccc2s1)N1CCCc2ccccc21,"inconclusive: 16.4 µM [inhibitor, single point]",
O=C1C=C(c2ccc(O)cc2)C[C@@H](c2ccc(Cl)cc2)C1,"inconclusive: 10.3 µM [inhibitor, partial curve]",
Cc1cc(Cl)ccc1OCC(=O)N/N=C/c1ccncc1,inactive,
COc1cccc(CNC(=O)c2ccc(C3SCCS3)cc2)c1,"inconclusive: 29.1 µM [inhibitor, single point]",
CC1CCCN(S(=O)(=O)c2ccc3c(c2)C(C)(C)C(=O)N3C)C1 (configuration not stated),"inconclusive: 13 µM [inhibitor, partial curve]",
CC(NC(=O)c1cc(F)ccc1F)c1nnc2n1CCN(Cc1cccs1)CC2 (configuration not stated),inactive,
COc1ccccc1-c1oc2ccccc2c(=O)c1OC,active: 6.68 µM,
Cc1ccc(-c2noc(CN(C(=O)c3ccc(C(C)(C)C)cc3)C(C)C)n2)cc1,"inconclusive: 20.6 µM [inhibitor, single point]",
CCCc1cc(C(N)=S)ccn1,"inactive and inconclusive: 29.1 µM [inhibitor, single point]",

SMILES,Potency,"activity change, negative = growth inhibition"
O=C(COC(=O)CN1C(=O)c2ccccc2C1=O)NC1CCCC1,inactive,
CCOC(=O)c1ccccc1NC(=O)CN(c1cc(C(F)(F)F)ccc1Cl)S(C)(=O)=O,"inconclusive: 29.1 µM [inhibitor, single point]",
COc1ccc([C@H]2CC(=O)C=C(/C=C/c3ccccc3)C2)cc1,"inconclusive: 29.1 µM [inhibitor, single point]",
C[C@H](NC(=O)[C@@H]1Cc2ccccc2CN1C(=O)OC(C)(C)C)C(=O)NCc1ccco1,inactive,
CC1(C)CN(c2ccc(Br)cc2)C(=O)[C@H]1CC(=O)Nc1ccccc1,"inconclusive: 29.1 µM [inhibitor, single point]",
COc1ccc(-c2nc(CN3CCN(c4ccccc4OC)CC3)c(C)o2)cc1,"inconclusive: 25.9 µM [inhibitor, single point]",
CCOc1cc(/C=N\NC(=O)c2ccc(NC(=O)C(C)(C)C)cc2)ccc1OC(=O)c1ccc(C)cc1,"inconclusive: 23.1 µM [inhibitor, single point]",
Cc1ccc(OC(=S)Nc2ccccc2)c(C)c1,"inconclusive: 29.1 µM [inhibitor, single point]",
N=C1C(c2nc3ccccc3[nH]2)=C(O)CN1c1ccccc1,"inconclusive: 29.1 µM [inhibitor, single point]",
O=C(Cn1ccc2cc(S(=O)(=O)N3CCCCCC3)ccc21)NCCc1ccccc1Cl,"inconclusive: 18.4 µM [inhibitor, single point]",
Cc1ccc(CCNC(=O)CCS(=O)(=O)c2ccc3c(c2)oc(=O)n3C)cc1,inactive,
Cc1ccc(-n2c(C)cc(/C=C(\C#N)C(=O)NCC3CCCO3)c2C)cc1 (configuration not stated),"inconclusive: 16.4 µM [inhibitor, single point]",
Cc1ccc(C2CC(=O)c3cnc(N4CCN(c5ccccc5)CC4)nc3C2)cc1 (configuration not stated),"inconclusive: 23.1 µM [inhibitor, single point]",
COCCN=C1NN=C(c2ccc(C)c([N+](=O)[O-])c2)CS1,"inconclusive: 29.1 µM [inhibitor, single point]",
Cc1ccccc1N(C(=O)c1snc(C(N)=O)c1N)C(C(=O)NCC1CCCO1)c1ccc(N(C)C)cc1 (configuration not stated),"inconclusive: 25.9 µM [inhibitor, single point]",
CCCCSCCCNC(=O)c1cn(CC)c2ccc(S(=O)(=O)N(C)C3CCCCC3)cc2c1=O,"inconclusive: 29.1 µM [inhibitor, single point]",
Cc1noc(NS(=O)(=O)c2ccc(NC(=O)COc3ccccc3Br)cc2)c1C,"inconclusive: 20.6 µM [inhibitor, single point]",
Clc1ccc(-n2nnnc2-c2ccccc2)cc1,inactive,
COc1cccc(C2(CC(=O)N3CCN(c4nonc4C)CC3)CC(=O)N(C3CCCC3)C2=O)c1 (configuration not stated),"inconclusive: 29.1 µM [inhibitor, single point]",
CCOC(=O)c1ccc(NC(=O)CSc2nnc(-c3cccs3)n2C)cc1,"inconclusive: 18.4 µM [inhibitor, partial curve]",
COc1ccccc1/C=C/C=N/n1c(-c2ccc(Cl)cc2)n[nH]c1=S,"inconclusive: 29.1 µM [inhibitor, single point]",
CCCn1c(SCC#N)nc2c(c1=O)C1(CCCC1)Cc1ccccc1-2,"inconclusive: 25.9 µM [inhibitor, single point]",
CC1CCc2[nH]c3ccc(C(=O)N(C)CC(=O)Nc4cccc(F)c4)cc3c2C1 (configuration not stated),"inconclusive: 20.6 µM [inhibitor, partial curve, poor fit]",

SMILES,Potency,"activity change, negative = growth inhibition"
CCOC(=O)Cc1csc(SCC(=O)NC2CCC(C)CC2)n1 (configuration not stated),"inconclusive: 25.9 µM [inhibitor, single point]",
CCOC(=O)C1(C)CCCN(C(=O)c2cc(C)oc2C)C1 (configuration not stated),"inconclusive: 14.6 µM [inhibitor, partial curve]",
CC(=O)Nc1ccc(-c2ccnc3c2CC(C(=O)Nc2cccc(Oc4ccccc4)c2)O3)cc1 (configuration not stated),"inconclusive: 20.6 µM [inhibitor, single point]",
CCOC(=O)c1sc2nc(C(C)C)c3c(c2c1N)CC(C)(C)OC3,"inconclusive: 16.4 µM [inhibitor, single point]",
CCc1ccc(C(O)c2ncc(-c3ccc(Cl)cc3)[nH]2)cc1 (configuration not stated),"inconclusive: 14.6 µM [inhibitor, single point]",
COC(=O)C1=NNC(C(=O)c2ccco2)C1c1ccccc1 (configuration not stated),"inconclusive: 14.6 µM [inhibitor, single point]",
CC(=O)c1c(C)nc2ccc(Br)cc2c1-c1ccccc1,"inconclusive: 9.2 µM [inhibitor, partial curve]",
CN(c1ccccc1C(=O)O)S(C)(=O)=O,inactive,
COc1ccc(/C=C2\SC(=S)N(CCCC(=O)Nc3ccc(O)cc3)C2=O)cc1,"inconclusive: 29.1 µM [inhibitor, single point]",
O=C(NCC1CCCO1)c1nn2c(C(F)(F)F)cc(-c3cc(Br)cs3)nc2c1Br (configuration not stated),"inconclusive: 18.4 µM [inhibitor, single point]",
Cc1cc(C=C2C(=O)c3ccccc3C2=O)c(C)n1-c1ccccc1,"inconclusive: 13 µM [inhibitor, partial curve]",
CCOCCCn1c(SCC(=O)Nc2ccccc2)nc2ccccc2c1=O,"inconclusive: 29.1 µM [inhibitor, single point]",
CCNc1nn2ccccc2c1/C=C(\C#N)C(=O)OCC,"inconclusive: 20.6 µM [inhibitor, single point]",
Cc1ccc(CCNC(=O)c2ccc(CS(=O)(=O)Cc3ccc(Cl)cc3)o2)cc1,,inconclusive: -31.5% [inhibitor]
O=C(NC1CCCCC1)c1ccc(-c2ccccc2F)o1,"inconclusive: 16.4 µM [inhibitor, single point]",
Cc1ccccc1NC(=O)C1CCCN1S(=O)(=O)c1ccccc1C(F)(F)F (configuration not stated),"inconclusive: 18.4 µM [inhibitor, single point]",
Cc1ccc(S(=O)(=O)NCCC(=O)N2CCN(c3cccc(Cl)c3)CC2)cc1C,active: 14.6 µM,
CCOc1cc(/C=C2\C(=O)N(c3ccc(C(N)=O)cc3)N=C2C)ccc1OC(=O)c1cccs1,active: 14.6 µM,
O=C(C1CCC(=O)N1C1CCCCC1)N1CCN(c2ccc(F)cc2)CC1 (configuration not stated),inactive,
Cc1ccc(NC(=O)CN2CCc3ccccc3C2)cc1C,inactive,
CC1(C)OC(=O)C2=C(C[C@@H](CCc3ccccc3)O[C@H]2CCc2cccc(Cl)c2)O1,"inconclusive: 16.4 µM [inhibitor, single point]",
